Values marked as one replicate rest on one cluster of the flow cell; about a third of the high ones do not repeat.

These results are taken from the supplement of paper PMC10126150.
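Further: ATP exposure 15 min at 22 °C before imaging.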

The data set concerns ATP. The experiment in a line: switch fluorescence ratio, 500 uM ATP over buffer (Cy3 cluster intensity, sum of 5 cycles each) (fold (ratio)); higher = stronger signal-on switching upon ATP binding; sequences stand for … in TCGTCGGCAGCGTCAGATGTGTATAAGAGACAGTTTTTTTTTTTTTTTTTTTTTTTTT…TC. The settings on record: aptamer strand: ATP DNA aptamer (quencher-CACCTGGGGGAGTATTGCGGAGGAAGG + anchor), 100 nM annealed; ATP concentration: 500 uM; one replicate. The method, boiled down:
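For every switch-domain sequence, the fluorescence ratio is the mean of per-cluster values, each being summed target-cycle Cy3 intensity over summed buffer-cycle Cy3 intensity. Clusters outside 100-1000 RFU were excluded. On a modified Illumina MiSeq flow-cell, the Cy3-labelled switching-strand clusters were annealed to 100 nM quencher-labelled ATP aptamer, imaged in selection buffer and then after 15 min with 500 uM ATP at 22 °C. Five such cycles were run, with NaOH stripping and re-annealing between them.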
As for TTCTCGTTTA, the switch fluorescence ratio was 1.02.
Under TGGTATCGGG stands 0.978.
Under CTTGCAGGAT stands 1.02; under GGAGGCGATC, 1.04; under TTGAGGGGCC, 0.988.
As for CTAAGACCGA, the figure is 0.997; as for CTAGTTGTAT, 1.01.
Regarding GGCCTTTCCT, the switch fluorescence ratio is 1.39.
As for TACCCTAGTA, the figure is 0.994.
Turning to CGAGGAACGG, the switch fluorescence ratio was 0.992.
As for GGATCTAGAC, the figure is 1.02.
As for TTGACCGTA, the figure is 0.984; as for GGCTCGGTTT, 1.02.
Under TACTGTGCTT stands 0.999; under GATGGGTGTA, 1.03.
As to TAGCTTTCA, the switch fluorescence ratio came to 0.992.
As for GGGACTGGGC, the figure is 1.06; as for AGTGAATTTC, 0.96; as for ATTATCCTGT, 0.999.
As for ATCCTGCGTT, the figure is 1.05; as for ATCGCCCATG, 1.07.
As to CCCCAGCTCC, the switch fluorescence ratio was determined as 1.8.
Under CGGGGACCCG stands 1.01; under ATGTGGGGCG, 0.998; under GTCGTGCTT, 1.01.
As for CTTCCTGCCG, the figure is 1.23; as for AGTGTACGGT, 1.04.
Under AAAATTACGT stands 0.992; under GCGTGTCGT, 1.03; under ACCAGCTAGT, 1.01.
As for CGAGAAACTC, the switch fluorescence ratio worked out at 1.03.
As for ATTTGGCTTC, the figure is 0.977; as for AGTTGGAGTA, 0.974.
Take AGCTATTCGA: the switch fluorescence ratio came to 1.06.
As for ATCAGGGTCG, the figure is 1.04; as for TAGCGGACAG, 1.05.
As for GTCTCAGGTA, the figure is 1.03; as for GAATCGCGCG, 0.968; as for CCTAAAAATG, 1.01.
As for TGCATCTTA, the figure is 1.
TTTTTTTA: the switch fluorescence ratio worked out at 0.976.
As for TTGTATTGAA, the figure is 0.963; as for GGGCAATCCA, 0.994.
In the case of AACGACCAGC, the switch fluorescence ratio came out at 1.14.
Under AGACGCTCTT stands 1.1.
For TCAAGCGATT, the switch fluorescence ratio worked out at 1.07.
Under CGGACGGTGT stands 1.03; under TATCTACGCA, 1.99; under TACGGTCCTT, 1.06.
As for GGGGTCGTAG, the figure is 0.975; as for ACGGATCATC, 1.01.
GTAGTAGTCG: the switch fluorescence ratio came to 0.921.
Consider CACGATTTTC, for which the switch fluorescence ratio came to 0.925.
Under AGGTAGGACC stands 1.06; under GGACGGGACT, 1.14; under AGATGCCGCT, 0.966.
Regarding ACGTTTGAAT, the switch fluorescence ratio was 1.02.
Regarding TGAATTATC, the switch fluorescence ratio worked out at 1.03.
As for TGAACGAGAG, the figure is 1; as for AGGGGACCTC, 1.03; as for CTGTCAGCTG, 1.01.
As for TGATCGGATG, the figure is 0.951; as for CTTGCCCGGG, 1.07.
As for ACCGTGTAGC, the figure is 1.06.
For the sequence GCATTACAGC, the switch fluorescence ratio was determined as 1.05.
In the case of GGTCAAGGGT, the switch fluorescence ratio stood at 0.99.
Turning to ACGTTGACGC, the switch fluorescence ratio came out at 1.09.
Consider TCGTGACACG, for which the switch fluorescence ratio came out at 1.01.
As for GTGTTAAACT, the figure is 0.959; as for ACGGGTGATC, 1.05.
With AATGGGCTCG, the switch fluorescence ratio is 1.02.
As for AGCAAACCCG, the figure is 1.08; as for CAAAATCAAT, 0.966; as for GTCTCACGTT, 0.983.
As for TTACCTAAAT, the figure is 1.04.
For the sequence ATGGGTGAAT, the switch fluorescence ratio amounted to 0.967.
Under GTACCATGCA stands 1; under TCGTTGGCA, 1.03.
As for AACATACGCA, the figure is 1.29.
Under CAGGTATGGC stands 1.02; under TAAGGCCGG, 1.01; under TAGCGAGTTT, 0.937.
As to CTCCAGAGTT, the switch fluorescence ratio stood at 1.04.
Turning to CTCGATCGTG, the switch fluorescence ratio amounted to 1.01.
In the case of TTTTGCGCGG, the switch fluorescence ratio was 0.991.
Under GATTCTGCAG stands 0.991.
Consider AACTAATAGA, for which the switch fluorescence ratio amounted to 0.99.
Under GCGATGCTAA stands 1.06; under CTTTGAGTCA, 0.981; under GCACGAATGA, 1.1.
Take TTCCTGCATA: the switch fluorescence ratio worked out at 1.23.
As for TGTCGAATGC, the figure is 0.951; as for AGAAGTGGGT, 1.02; as for AGTTGGAGGT, 0.958.
Under CTCGAATTC stands 1.12.
With TATTGGTAGT, the switch fluorescence ratio is 1.01.
Under CATCTCGACA stands 1.09; under ATATATAAGG, 0.983; under CGGTTCGTGT, 0.989.
Turning to TCGAACCTC, the switch fluorescence ratio came to 1.04.
Turning to TTGTTAATGC, the switch fluorescence ratio was found to be 1.22.
Under GCTCCCGGGT stands 1.77.
Under TACCCGCGGT stands 1.12; under GATGCTGCTT, 1.03; under TGAGTTGGCA, 1.02.
As for AAGAATACCG, the figure is 0.99; as for GGAAGTTGCA, 1.03; as for GGACAGGGTG, 1.04.
Turning to CTTCTGCGTT, the switch fluorescence ratio was determined as 1.03.
On to TCCACCCATA, for which the switch fluorescence ratio was 1.32.
Take TCACGATGTT: the switch fluorescence ratio stood at 0.963.
Under AGTAGATTCA stands 0.971.
As for GTTACGGGTC, the figure is 0.991.
Turning to CGAATACAG, the switch fluorescence ratio is 0.978.
Under CGGCATCATG stands 1.04.
As for AGGAGTGACC, the figure is 1.04.
Under CCGAAATTGT stands 1.2; under AATTTAATAG, 1.02.
For the sequence TTCCTGGTCG, the switch fluorescence ratio came out at 1.03.
As for ATTTATCTT, the figure is 1.02.
